Test results: the supplement of paper PMC8728848
This is one part of the list.

Experiments:
Experiment in all cases: glycan array binding signal (z-score within array); higher = stronger binding
Details in all cases: glycan notation: IUPAC condensed, linker removed
Fuc(a1-2)Gal = molecular target: Fuc(a1-2)Gal
In short: (§1)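 The Consortium for Functional Glycomics database supplied 3228 glycan arrays, of which those lacking an available protein sequence were dropped. The binding signal, a within-array Z-score, was averaged across arrays of the same protein sequence and across linkers. Negative scores can be read as non-binding.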

Fuc(a1-2)Gal(b1-3)GalNAc = molecular target: Fuc(a1-2)Gal(b1-3)GalNAc
In short: as §1

[1] = molecular target: Fuc(a1-2)Gal(b1-3)GalNAc(a1-3)[Fuc(a1-2)]Gal(b1-4)Glc
In short: as §1

[2] = molecular target: Fuc(a1-2)Gal(b1-3)GalNAc(a1-3)[Fuc(a1-2)]Gal(b1-4)GlcNAc
In short: as §1

[3] = molecular target: Fuc(a1-2)Gal(b1-3)GalNAc(b1-3)Gal
In short: as §1

[4] = molecular target: Fuc(a1-2)Gal(b1-3)GalNAc(b1-3)Gal(a1-4)Gal(b1-4)Glc
In short: as §1

[5] = molecular target: Fuc(a1-2)Gal(b1-3)GalNAc(b1-4)[Neu5Ac(a2-3)]Gal(b1-4)Glc
In short: as §1

Fuc(a1-2)Gal(b1-3)GlcNAc = molecular target: Fuc(a1-2)Gal(b1-3)GlcNAc
In short: as §1

[6] = molecular target: Fuc(a1-2)Gal(b1-3)GlcNAc(b1-2)Man(a1-3)[Fuc(a1-2)Gal(b1-3)GlcNAc(b1-2)Man(a1-6)]Man(b1-4)GlcNAc(b1-4)GlcNAc
In short: as §1

[7] = molecular target: Fuc(a1-2)Gal(b1-3)GlcNAc(b1-2)Man(a1-3)[Fuc(a1-2)Gal(b1-3)GlcNAc(b1-2)Man(a1-6)]Man(b1-4)GlcNAc(b1-4)[Fuc(a1-6)]GlcNAc
In short: as §1

[8] = molecular target: Fuc(a1-2)Gal(b1-3)GlcNAc(b1-3)Gal(b1-4)Glc
In short: as §1

[9] = molecular target: Fuc(a1-2)Gal(b1-3)GlcNAc(b1-3)GalNAc
In short: as §1

[10] = molecular target: Fuc(a1-2)Gal(b1-3)GlcNAc(b1-3)[Fuc(a1-2)Gal(b1-3)GlcNAc(b1-6)]GalNAc
In short: as §1

[11] = molecular target: Fuc(a1-2)Gal(b1-3)GlcNAc(b1-3)[Gal(b1-4)GlcNAc(b1-6)]Gal(b1-4)Glc
In short: as §1

[12] = molecular target: Fuc(a1-2)Gal(b1-3)GlcNAc(b1-3)[Neu5Ac(a2-6)Gal(b1-4)GlcNAc(b1-6)]Gal(b1-4)Glc
In short: as §1

[13] = molecular target: Fuc(a1-2)Gal(b1-3)GlcNAc6S
In short: as §1

[14] = molecular target: Fuc(a1-2)Gal(b1-3)[Fuc(a1-4)]GlcNAc
In short: as §1

[15] = molecular target: Fuc(a1-2)Gal(b1-3)[Fuc(a1-4)]GlcNAc(b1-2)Man(a1-3)[Fuc(a1-2)Gal(b1-3)[Fuc(a1-4)]GlcNAc(b1-2)Man(a1-3)]Man(b1-4)GlcNAc(b1-4)GlcNAc
In short: as §1

[16] = molecular target: Fuc(a1-2)Gal(b1-3)[Fuc(a1-4)]GlcNAc(b1-2)Man(a1-3)[Fuc(a1-2)Gal(b1-3)[Fuc(a1-4)]GlcNAc(b1-2)Man(a1-6)]Man(b1-4)GlcNAc(b1-4)[Fuc(a1-6)]GlcNAc(b1-4)[Fuc(a1-6)]GlcNAc
In short: as §1

[17] = molecular target: Fuc(a1-2)Gal(b1-3)[Fuc(a1-4)]GlcNAc(b1-3)[Fuc(a1-3)[Gal(b1-4)]GlcNAc(b1-6)]Gal(b1-4)Glc
In short: as §1

[18] = molecular target: Fuc(a1-2)Gal(b1-3)[Fuc(a1-4)]GlcNAc(b1-3)[Gal(b1-4)GlcNAc(b1-6)]Gal(b1-4)Glc
In short: as §1

[19] = molecular target: Fuc(a1-2)Gal(b1-4)Fuc(a1-3)]GlcNAc(b1-2)Man(a1-3)[Fuc(a1-2)Gal(b1-4)[Fuc(a1-3)]GlcNAc(b1-2)Man(a1-6)]Man(b1-4)GlcNAc(b1-4)GlcNAc
In short: as §1

Fuc(a1-2)Gal(b1-4)Glc = molecular target: Fuc(a1-2)Gal(b1-4)Glc
In short: as §1

Fuc(a1-2)Gal(b1-4)Glc6S = molecular target: Fuc(a1-2)Gal(b1-4)Glc6S
In short: as §1

Fuc(a1-2)Gal(b1-4)GlcNAc = molecular target: Fuc(a1-2)Gal(b1-4)GlcNAc
In short: as §1

[20] = molecular target: Fuc(a1-2)Gal(b1-4)GlcNAc(b1-2)Man
In short: as §1

[21] = molecular target: Fuc(a1-2)Gal(b1-4)GlcNAc(b1-2)Man(a1-3)[Fuc(a1-2)Gal(b1-4)GlcNAc(b1-2)Man(a1-6)]Man(b1-4)GlcNAc(b1-4)GlcNAc
In short: as §1

[22] = molecular target: Fuc(a1-2)Gal(b1-4)GlcNAc(b1-2)Man(a1-3)[Fuc(a1-2)Gal(b1-4)GlcNAc(b1-2)Man(a1-6)]Man(b1-4)GlcNAc(b1-4)[Fuc(a1-6)]GlcNAc
In short: as §1

[23] = molecular target: Fuc(a1-2)Gal(b1-4)GlcNAc(b1-2)[Fuc(a1-2)Gal(b1-4)GlcNAc(b1-4)]Man(a1-3)[Fuc(a1-2)Gal(b1-4)GlcNAc(b1-2)Man(a1-6)]Man(b1-4)GlcNAc(b1-4)GlcNAc
In short: as §1

[24] = molecular target: Fuc(a1-2)Gal(b1-4)GlcNAc(b1-3)Gal(b1-4)GlcNAc
In short: as §1

B1: Als1 (Candida albicans), P46590 (protein)
chain: KTITGVFDSFNSLTWSNAANYAFKGPGYPTWNAVLGWSLDGTSANPGDTFTLNMPCVFKYTTSQTSVDLTADGVKYATCQFYSGEEFTTFSTLTCTVNDALKSSIKAFGTVTLPIAFNVGGTGSSTDLEDSKCFTAGTNTVTFNDGDKDISIDVEFEKSTVDPSGYLYASRVMPSLNKVTTLFVAPQCENGYTSGTMGFSSSNGDVAIDCSNIHIGITKGLNDWNYPVSSESFSYTKTCTSNGIQIKYQNVPAGYRPFIDAYISATDVNQYTLAYTNDYTCAGSRLQSKPFTLRWTGYKNSDAGSNGIVIVATTRTVTDSTTAVTTLPFNPSVDKTKTIEILQPIPTTTITTSYVGVTTSYLTKTAPIGETATVIVDVPYHTTTTVTSEWTGTITTTTTRTNPTDSIDTVVVQVP
glycan array binding signal (z-score) (Fuc(a1-2)Gal): -0.33 | glycan array binding signal (z-score) (Fuc(a1-2)Gal(b1-3)GalNAc): -0.221 | glycan array binding signal (z-score) [1]: -0.242 | glycan array binding signal (z-score) [2]: -0.216 | glycan array binding signal (z-score) [3]: 3.32 | glycan array binding signal (z-score) [4]: -0.612 | glycan array binding signal (z-score) [5]: -0.178 | glycan array binding signal (z-score) (Fuc(a1-2)Gal(b1-3)GlcNAc): -0.524 | glycan array binding signal (z-score) [6]: -0.318 | glycan array binding signal (z-score) [7]: -0.229 | glycan array binding signal (z-score) [8]: -0.544 | glycan array binding signal (z-score) [9]: -0.107 | glycan array binding signal (z-score) [10]: -0.472 | glycan array binding signal (z-score) [11]: -0.807 | glycan array binding signal (z-score) [12]: 0.148 | glycan array binding signal (z-score) [13]: -0.587 | glycan array binding signal (z-score) [14]: 0.197 | glycan array binding signal (z-score) [15]: 0.22 | glycan array binding signal (z-score) [16]: -0.25 | glycan array binding signal (z-score) [17]: -0.205 | glycan array binding signal (z-score) [18]: 0.325 | glycan array binding signal (z-score) [19]: 0.691 | glycan array binding signal (z-score) (Fuc(a1-2)Gal(b1-4)Glc): -0.085 | glycan array binding signal (z-score) (Fuc(a1-2)Gal(b1-4)Glc6S): 1.13 | glycan array binding signal (z-score) (Fuc(a1-2)Gal(b1-4)GlcNAc): -0.013 | glycan array binding signal (z-score) [20]: 0.12 | glycan array binding signal (z-score) [21]: -0.217 | glycan array binding signal (z-score) [22]: 1.97 | glycan array binding signal (z-score) [23]: 0.501 | glycan array binding signal (z-score) [24]: -0.571
